The source gives no read counts; variants with many changes may rest on few reads.
B1: LINE1-full (parent)
chain: UACGUAGGUGGUUUUCCCCUGAUAGUGCUAAGGGGGCCUGGAAGUUUGGACUGGGCAGAGCUCAACACAGCGUGGCAAAGUGGCUGUGGCUAGACUGCCUCUCUGGAUUCCUCGUCACUCAGCAGGGCAUCUCUGAGAGAAAUGCC

Variants of: B1
Assay: self-cleavage, relative activity (ratio to wild type); higher = more cleavage; in vitro, sequencing; the parent is a self-cleaving ribozyme

Variant	self-cleavage
U12G U23C G54A U81A U91A	0.43
U20C U26C A59G U81A A94U U109A	0.28
A59G A79G U104C G126A	0.05
A69U U100C U130C	0
C76U A79G A138G	2.06
C17U A30G U109A	0.29
U45A A79G U102A	1.52
U9C A64G G70A A136G A140G	0.34
A57G A64G U73C A117U	0.35
G33A A42G U62C A69U U108C A121G	0
A22G A65G U96A U132A	0
U20C A50G A65G U91C	0
A117U U119A U130A	1.15
U62A U108C U132A	0.04
U46A U115C U132C	1.96
C71G A94G A117G	0
U39A U108C A140G	0.37
U13C C110U U112C	1.26
U9C U47A A140G	1.73
U20C U115C U143C	1.59
A22G A24U U100C	1.53

Variant	self-cleavage
U12C U45C U134A A136G	2.49
U12C C123U A141G	1.29
A6G U14C U134C A140G	0.92
A77G U81C U87A A129G	0
U20A U85C U115C	0
A57G U96C A138G	0
U12C U15A C131U A136G	0.77
A42G U102A A141G	2.17
A22G A65U U143G	0.36
U15A U26C C118U G126A	2.17
U9C G34A A77G U115A	1.98
U47A A50G A69U A140U	0
U39A A64G U73A	0.26
G35A U47A A78U	1.47
U20A U39C A136G	1.41
U14C U26C A59G A69G A78U	0
G32A U39C U73A U119G	0.79
U13A A92U A136U	0.36
U1C U12G G139U	0.6
A42G U62A C76U U119A	0.05
A42G U109C A140G	1.5

Variant	self-cleavage
G4A U9C U115C C116U	1.5
U14C A22G A31U A69G U85A U134C	0.16
A2G U14C A22U U102C U132G	0.71
G4A U5C A64G C101A	0.19
C37A A77U A79G C90U A141G	0.02
A43G U52A U134C	0.92
U12C G32A G83A U115C C123U	0.8
U87C U119A U130C	0.18
A69U U81A U104A	0.02
U13C U45A A64U G106A U115C	0.43
A79G U85C A138G	0.3
G55A A59G G137A	0.03
C19U A78G A79U U91A U130A	0.94
G54A A67C A79G G114U	0.15
G10A A22G A64U C71U U115C C133A	0.18
G40A G53U A107G U130C	0.94
U9A A57G U62C U104C	0.92
A22U U62C A142G	0.09
U5C U20A U62A A117G A141G	0
U13C A57U A67G	0.44
G88A U112C A124G	0.08

Variant	self-cleavage
C28U U29C A138G A142G	0.71
C103U U108C A129G	1.78
U26A A57G A79G U85C	0
U14A A77G A78C	0.8
G60U A65G G83A	0.05
A50U G74A G82U U102C	0.87
U12C C111U A138U	1.35
A42G A43G U45A U100C	1.24
U5C C90G A94G A124G	0.26
U39G A43G A79G G126A	1.16
U23C A107U A138G	1.7
U46C C61A A69G U134A	0.06
U20A G33A U96C	0.13
C18U A50G U109A A140G	0.09
U5C G126U U134C	1.33
A57G U87A U109C	0.04
G7U G11U U87C	0.09
U46A A59G A77G C128U A138G	0.1
G32A U87A C111U	0.02
U26C G36A A124C	1.09
